Measurements from PubChem BioAssay AID1117319 (Southern Research Institute, 2015).
Results filed as inconclusive are left out. Not every entry of the source has a single result; some have several. They are shown here; other results are not. There may be further records. The records of an entry repeat one measurement (runs, samples, wells, individuals or studies). Records carry a tag for their origin. A, B and so on number the origins entry by entry.

Biological target: Virion infectivity factor (Human immunodeficiency virus type 1 group M subtype B (isolate BH10)) + Virion infectivity factor (Human immunodeficiency virus type 1 group M subtype B (isolate BRU/LAI)) + Virion infectivity factor (Human immunodeficiency virus type 1 group M subtype B (isolate PCV12)) + Virion infectivity factor (Human immunodeficiency virus type 1 group M subtype B (isolate HXB2)) + DNA dC->dU-editing enzyme APOBEC-3G (Homo sapiens) (UniProt P69720+P69721+P69722+P69723+Q9HC16)
Test: inhibitors of Vif binding to APOBEC3G peptide, primary screen, biochemical, TR-FRET, GST-Vif 1-94, biotin-A3G peptide, dose response retest (AID 1117319);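 further: Vif residues 1-94 fused to GST binding biotinylated APOBEC3G peptide 110-148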

SMILES	IC50
O=C(Nc1ccccc1)c1ccc2nc(-c3ccco3)c(-c3ccco3)nc2c1	1.48 µM [sample A] and 19.9 µM [sample B]
Clc1ccccc1CSc1nnc(-c2ccco2)c(-c2ccco2)n1	1.37 µM [sample A] and 25.2 µM [sample B]
